In patent publication US20240115500A1, “POLYMERIC MICELLE COMPLEXES OF MRNA OR ZWITTERIONIC AGENTS, AND FORMULATIONS AND USES THEREOF” (Aravasc Inc., priority 2020, published 2024):

Experiment: Agarose gel electrophoresis of protein + PBC formulations (Example 1)
Type: physicochemical
Settings: PBC:protein ratios of 3:1, 9:1 and 30:1 w/w; PBS pH 7.4; room temperature, 10-20 minutes; FIG. 1

**Q.** With Semaglutide as the substance, how does the “complexation with PBC (agarose gel)” value read?
**A.** The value was “observed to complex”.
